Some of the results follow.
tested on: S. aureus RN4220; experiment: growth inhibition call (relative growth <= 0.2); conditions: 50 µM

SMILES | growth inhibition call
COc1ccc(NC(=O)N(C)C[C@H]2OCCCC[C@H](C)Oc3ccc(NC(=O)Cc4ccccc4)cc3C(=O)N([C@H](C)CO)C[C@H]2C)cc1 | inactive
COc1cc2c(cc1OC)CN(C(=O)[C@H]1[C@@H]3C(=O)O[C@@H](c4ccccc4)[C@@H](c4ccccc4)N3[C@@H](c3ccccc3OCCO)[C@]13C(=O)Nc1ccc(C#CC4(O)CCCCCC4)cc13)CC2 | inactive
COc1ccc(NC(=O)Nc2ccc3c(c2)C(=O)N([C@H](C)CO)C[C@@H](C)[C@@H](CN(C)S(C)(=O)=O)O3)cc1 | inactive
CCOC(=O)C[n+]1ccccc1C | inactive
COc1ccc(S(=O)(=O)N(C)C[C@@H]2OCCCC[C@@H](C)Oc3ccc(NC(=O)Nc4ccc(C(F)(F)F)cc4)cc3C(=O)N([C@H](C)CO)C[C@H]2C)cc1 | inactive
C[C@H]1CN([C@@H](C)CO)C(=O)c2cc(NC(=O)NC3CCCCC3)ccc2O[C@H]1CN(C)C(=O)Nc1ccc(C(F)(F)F)cc1 | inactive
Cc1noc(C)c1NC(=O)N(C)C[C@@H]1Oc2ccc(NC(=O)c3ccncc3)cc2CC(=O)N([C@H](C)CO)C[C@@H]1C | inactive
COc1cccc(CN(C)C[C@@H]2OCc3ccccc3-c3c(n(C)c4ccccc34)C(=O)N([C@H](C)CO)C[C@@H]2C)c1 | inactive
COc1cccc(S(=O)(=O)Nc2ccc3c(c2)[C@H]2C[C@H](CC(=O)NC4CCCCC4)O[C@@H](CO)[C@H]2O3)c1 | inactive
C[C@@H]1CCCCO[C@H](CN(C)S(=O)(=O)c2cccs2)[C@@H](C)CN([C@@H](C)CO)C(=O)c2cc(NC(=O)Nc3ccc(F)cc3)ccc2O1 | inactive
C[C@H]1CCCCO[C@@H](CN(C)Cc2ccc(Cl)c(Cl)c2)[C@@H](C)CN([C@@H](C)CO)C(=O)c2cc(NC(=O)Nc3ccc(C(F)(F)F)cc3)ccc2O1 | inactive
Cc1noc(C)c1NC(=O)N(C)C[C@H]1OCCCC[C@@H](C)Oc2ccc(NS(=O)(=O)c3cccs3)cc2C(=O)N([C@@H](C)CO)C[C@@H]1C | inactive
C[C@H]1CN([C@@H](C)CO)C(=O)c2cccc(NC(=O)C3CCOCC3)c2O[C@H]1CN(C)Cc1ccc(-c2ccccc2)cc1 | inactive
CNC(=O)C[C@@H]1CC[C@@H]2[C@H](COC[C@@H](O)CN2C(=O)c2ccc3c(c2)OCO3)O1 | inactive
C[C@@H]1CCCCO[C@@H](CN(C)S(=O)(=O)c2ccc(Cl)cc2)[C@H](C)CN([C@@H](C)CO)C(=O)c2cc(NS(=O)(=O)c3ccc(Cl)cc3)ccc2O1 | inactive
CN(C)C(=O)C[C@@H]1C=C[C@H](NC(=O)C2CCOCC2)[C@@H](CO)O1 | inactive
C[C@@H]1CCCCO[C@@H](CN(C)Cc2ccccc2)[C@H](C)CN([C@@H](C)CO)C(=O)c2cc(NC(=O)NC3CCCCC3)ccc2O1 | inactive
CC(C)[C@@H](N)c1nc2ccccc2[nH]1 | inactive
CCCC[P+](CCCC)(CCCC)Cc1ccc(NC(=O)[C@H](Cc2ccc3ccccc3c2)N/C(=N/C2CCCCC2)NC2CCCCC2)cc1 | active
C[C@H](CO)N1C[C@H](C)[C@H](CN(C)Cc2ccc3c(c2)OCO3)Oc2ccc(NC(=O)Nc3cccc4ccccc34)cc2C1=O | inactive
Cc1ccc(S[C@]2(C(=O)NC(C)C)CC(=O)N(Cc3ccccc3Cl)[C@@H]2c2ccc(CO)cc2)cc1 | inactive
c1ccc(CNC2CCCCC2)nc1 | inactive
Cn1cnc(S(=O)(=O)N[C@H]2CC[C@H](CC(=O)NCC3CC3)O[C@@H]2CO)c1 | inactive
COc1ccc(NC(=O)Nc2ccc3c(c2)[C@H]2C[C@@H](CC(=O)N4CCN(C)CC4)O[C@H](CO)[C@H]2O3)cc1 | inactive
C[C@H](CO)N1C[C@H](C)[C@@H](CN(C)Cc2ccc(Cl)c(Cl)c2)Oc2ccc(NS(=O)(=O)c3ccc(F)cc3)cc2CC1=O | inactive
C[C@H]1CN([C@@H](C)CO)C(=O)c2cc(NC(=O)Nc3ccc(C(F)(F)F)cc3)ccc2O[C@@H]1CN(C)C(=O)Nc1ccc(F)cc1 | inactive
C#CCSC1=N[C@@]2(COCc3ccc(OC)cc3)Oc3ccccc3[C@H]([C@H]2CO[Si](C)(C)C(C)(C)C)N1C(=O)c1ccccc1 | inactive
O=C1CC[C@@H](C(=O)O)N1 | inactive
O=C(C[C@H]1C[C@@H]2c3cc(NS(=O)(=O)c4ccc(F)cc4)ccc3O[C@@H]2[C@H](CO)O1)NCc1ccc(Oc2ccccc2)cc1 | inactive
O=C(C[C@H]1CC[C@@H]2[C@H](COC[C@@H](O)CN2S(=O)(=O)c2ccc(Cl)cc2)O1)NCCN1CCCC1 | inactive

From the antibiotic and cytotoxicity screens of Wong et al. (2023)
